About 5,000 (1.2%) of roughly 410,000 compounds were called active. Inconclusive results, whose numbers are uncertain, are shown with a selection of clear calls. Calls come from the whole dose curve; as a rule, active = well fitted inhibition curve with a large enough effect; inconclusive = small, poorly fitted or top-dose-only effect; inactive = no such curve, though single readings can be large or run the other way. Potencies of inconclusive entries are doubtful fits and often do not repeat.
assay: qHTS for Inhibitors of TGF-b; conditions: HepG2 CAGA-GFP TGF-b/SMAD3 reporter, GFP fluorescence, 18 h, TGF-beta stimulated, 500 pg/mL final; series mostly up to 46.1 µM; note: nearly all actives have a fitted effect of over 65% in size
Method in brief: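 TGF-beta reporter screen: HEPG2 CAGA-GFP, 1% FBS, 500 pg/mL TGF-beta final, 18 h; per-cell GFP summed per well; curves fitted and categorized by class.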
Potency is the fitted concentration of half-maximal effect; tags give direction and shape of the fitted curve.

| SMILES | Potency |
| --- | --- |
| CCOC(=O)C1CCCN(C(=O)N2CCOCC2)C1 (configuration not stated) | inconclusive: 35.5 µM [inhibitor, single point] |
| O=C(c1cnsn1)N1CCCC(Nc2ccc(F)c(F)c2)C1 (configuration not stated) | inactive |
| CCc1ccc(-n2c(=O)c3cccnc3n2CC(=O)Nc2ccccc2C(F)(F)F)cc1 | inconclusive: 25.1 µM [inhibitor, single point] |
| CCOC(=O)c1c(CN2CCOCC2)n(-c2ccccc2)c2cc(Br)c(O)cc12 | inactive |
| Cc1ccc(NC(=O)c2ccc(S(=O)(=O)N3CCCCC3)cc2)nc1 | inactive |
| COc1ccc(CN2C(=O)C(CC(C)C)Nc3ncnc(N4CCN(c5ccccn5)CC4)c32)cc1 (configuration not stated) | inconclusive: 35.5 µM [inhibitor, single point] |
| CCN(CC)C(=O)c1cccc(NC(=O)c2cc(-c3ccccn3)nc3ccccc23)c1 | inconclusive: 6.31 µM [inhibitor, single point] |
| C=CCc1cc(OC)ccc1OCCOCCN1CCc2ccccc2C1 | inconclusive: 1.58 µM [inhibitor, full curve, poor fit] |
| COC(=O)c1ccc(-n2c(C)cc(C(=O)CCl)c2C)cc1 | active: 20 µM |
| O=C(Nc1ccc2nc(-c3ccco3)c(-c3ccco3)nc2c1)N1CCCC1 | inconclusive: 35.5 µM [inhibitor, single point] |
| Cc1ccc(-n2c(-c3ccco3)nc3c(cnn3-c3ccccc3C)c2=O)cc1 | inconclusive: 35.5 µM [inhibitor, single point] |
| COc1cccc(CNc2ccc(S(N)(=O)=O)cc2)c1OCc1ccccc1F | inactive |
| Cc1cc(Cl)ccc1C1=CC(=O)C[C@H](c2ccc(F)cc2)C1 | inconclusive: 7.94 µM [inhibitor, partial curve, poor fit] |
| COCCn1c(N)c(Sc2ccc([N+](=O)[O-])cc2)c(=O)[nH]c1=O | inconclusive: 35.5 µM [inhibitor, single point] |
| O=C(c1ccco1)N1CCN(C2CN(Cc3cn(Cc4ccccc4C(F)(F)F)nn3)S(=O)(=O)C2)CC1 (configuration not stated) | inactive |
| CN1OC[C@@H]2CN(C(=S)NCCc3ccccc3)[C@H](c3ccccc3Br)C[C@@H]21 | inconclusive: 0.631 µM [inhibitor, partial curve, poor fit] |
| COC(=O)[C@@H]1C[C@H]2CC[C@H](O)C[C@H]2N1Cc1ccc(C)s1 | inactive |
| Cc1ccc2nc(N(CCCN(C)C)C(=O)c3cc(-c4cccs4)nc4ccccc34)sc2c1 | active: 15.8 µM |
| Cn1c2ccccc2c(=O)c2c(=O)n(C3CCCCC3)c(-c3cccs3)nc21 | inactive |
| O=c1oc2ccccc2cc1-c1cn2cc(Cc3ccccc3F)sc2n1 | inactive |
| COc1ccc(N2C(=O)C(CC(=O)Nc3ccc(Cl)cc3)N(NC(=O)c3cccc(F)c3)C2=S)cc1 (configuration not stated) | inconclusive: 35.5 µM [inhibitor, single point] |

| SMILES | Potency |
| --- | --- |
| C/C(=N\N=C1\NC(=O)C(CC(=O)Nc2ccc(C)c(Cl)c2)S1)C(C)C (configuration not stated) | inconclusive: 20 µM [inhibitor, single point] |
| N=c1c2c3c(sc2ncn1Cc1ccccc1)CCCC3 | inconclusive: 1.26 µM [inhibitor, full curve, poor fit] |
| Cc1ccc(N2C(=O)c3ccc(C(=O)N4CCN(c5cccc(C)c5C)CC4)cc3C2=O)cc1 | inconclusive: 3.16 µM [inhibitor, full curve, poor fit] |
| COCCN(C(=O)Cn1nnc2ccccc21)C(C(=O)NC1CCCC1)c1cc(OC)ccc1OC (configuration not stated) | inconclusive: 35.5 µM [inhibitor, single point] |
| Cc1ccc(-c2cn(-c3ccc(Cl)cc3)c(S(=O)(=O)CC(=O)Nc3ccccc3)n2)cc1 | inconclusive: 35.5 µM [inhibitor, single point] |
| COc1ccc(/C=N/Nc2nc(N3CCCCC3)nc(N3CCCCC3)n2)cc1[N+](=O)[O-] | inactive |
| CCn1c(SCC(=O)Nc2cccc(OC)c2)nnc1-c1ccc(Cl)cc1 | inconclusive: 7.08 µM [inhibitor, full curve, poor fit] |
| COc1ccc(CCNC(=O)COC(=O)c2ncc(Cl)c(Cl)c2Cl)cc1OC | inconclusive: 1.78 µM [inhibitor, full curve, poor fit] |
| O=c1oc2ccccc2cc1-c1cn2cc(Cc3ccc(Br)cc3)sc2n1 | inactive |
| Cc1cccc(C)c1Nc1c(-c2ccc(O)cc2)nc2sccn12 | inconclusive: 35.5 µM [inhibitor, single point] |
| Cc1nc(-c2ccc(S(=O)(=O)Nc3ccc(Br)cc3Cl)s2)cs1 | inconclusive: 35.5 µM [inhibitor, single point] |
| C=CCOC(=O)C1=C[C@@H](C2CCCCC2)C[C@@H](OCc2ccc(CO)cc2)O1 | inconclusive: 14.1 µM [inhibitor, single point] |
| CC(=O)Nc1ccc(S(=O)(=O)N(C2=NCC(C)S2)c2ccccc2)cc1 (configuration not stated) | inconclusive: 7.08 µM [inhibitor, partial curve] |
| CCOC(=O)CC1CCCCN1C(=O)CCCn1nnnc1CN1CCC(C)CC1 (configuration not stated) | inconclusive: 35.5 µM [inhibitor, single point] |
| COc1ccc(CN(C)S(=O)(=O)c2nnc(NC(=O)c3cccc(F)c3)s2)cc1 | inconclusive: 22.4 µM [inhibitor, single point] |
| N#Cc1ccc(OCC(O)CN2CCN(c3ncc(C(F)(F)F)cc3Cl)CC2)cc1 (configuration not stated) | inconclusive: 22.4 µM [inhibitor, single point] |
| CCc1nn(CC(=O)NCCCOC)c(=O)c2cc3ccccc3n12 | inconclusive: 2 µM [inhibitor, full curve] |
| COc1ccc(Cl)cc1NC(=O)CN1C(=O)CCS(=O)(=O)c2ccccc21 | inconclusive: 1 µM [inhibitor, full curve, poor fit] |
| COc1ccc(-c2oc3cccnc3c2C#CCO)cc1 | inactive |
| Oc1ccccc1Nc1nc(-c2ccccc2O)nc2ccccc12 | inactive |
| O=C(Nc1nc2ccccc2s1)c1ccc([N+](=O)[O-])o1 | inconclusive: 1.41 µM [inhibitor, full curve] |

Source: PubChem BioAssay AID588855 (National Center for Advancing Translational Sciences (NCATS), 2011)
